Assay results as given in paper PMC4336329 (PLoS ONE, 2015).
The campaign covered roughly 310,000 compounds. About 2,200 (0.71%) showed an effect of 50% or more. The effect is printed as a negative number. The list shows a part of the results.

Molecular target: human ether-à-go-go-related gene (hERG) potassium channel (human, UniProt Q12809)
Test: primary screen, population patch clamp on CHO cells stably expressing hERG

Sequence of human ether-à-go-go-related gene (hERG) potassium channel (Q12809 whole entry, looked up): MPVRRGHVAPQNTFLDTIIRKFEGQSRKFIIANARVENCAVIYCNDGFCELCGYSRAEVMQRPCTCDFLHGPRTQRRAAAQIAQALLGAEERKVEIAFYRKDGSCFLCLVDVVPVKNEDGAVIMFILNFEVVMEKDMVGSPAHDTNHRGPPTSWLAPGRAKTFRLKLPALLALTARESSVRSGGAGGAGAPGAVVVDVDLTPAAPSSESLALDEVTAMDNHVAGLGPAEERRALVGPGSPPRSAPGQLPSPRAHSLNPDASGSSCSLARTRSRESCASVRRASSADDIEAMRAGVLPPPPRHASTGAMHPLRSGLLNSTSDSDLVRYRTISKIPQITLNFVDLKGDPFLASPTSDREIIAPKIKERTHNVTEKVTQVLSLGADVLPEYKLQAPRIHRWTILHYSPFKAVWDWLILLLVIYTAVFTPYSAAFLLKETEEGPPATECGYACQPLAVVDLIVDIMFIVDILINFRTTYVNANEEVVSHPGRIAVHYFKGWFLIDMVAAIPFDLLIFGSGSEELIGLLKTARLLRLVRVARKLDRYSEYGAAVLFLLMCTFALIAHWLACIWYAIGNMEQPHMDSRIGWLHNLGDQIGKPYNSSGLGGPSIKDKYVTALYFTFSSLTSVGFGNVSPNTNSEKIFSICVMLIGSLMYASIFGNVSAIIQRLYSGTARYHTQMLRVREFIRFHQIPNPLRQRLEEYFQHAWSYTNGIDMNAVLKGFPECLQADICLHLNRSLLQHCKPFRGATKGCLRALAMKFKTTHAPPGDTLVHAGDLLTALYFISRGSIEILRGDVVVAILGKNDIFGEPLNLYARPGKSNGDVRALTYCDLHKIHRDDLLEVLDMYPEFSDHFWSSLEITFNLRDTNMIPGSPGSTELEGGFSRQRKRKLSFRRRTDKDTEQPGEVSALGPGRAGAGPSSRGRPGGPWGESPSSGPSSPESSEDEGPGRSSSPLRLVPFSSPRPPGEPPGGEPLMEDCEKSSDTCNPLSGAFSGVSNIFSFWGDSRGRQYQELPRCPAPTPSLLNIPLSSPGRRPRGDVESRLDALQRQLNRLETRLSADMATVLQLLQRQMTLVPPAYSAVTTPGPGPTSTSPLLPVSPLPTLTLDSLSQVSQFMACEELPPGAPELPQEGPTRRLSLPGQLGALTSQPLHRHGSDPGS

Structure (SMILES)	hERG current change (%, negative = inhibition) at 1uM
NC(=O)c1ncc(C(F)(F)F)cc1Oc1cccnc1	18.6%
O=C(N/N=C/c1ccoc1)c1ccc(Br)cc1	9.96%
CCCCc1c(O)c2ccccc2n(CCCC)c1=O	8.13%
COc1ccc(C2CCCN2C(=S)Nc2ccc(C)c(C)c2)cc1OC (centres unmarked)	4.73%
CCC(=O)c1cn(CC(=O)Nc2ccccc2)c2ccccc12	16.3%
Cc1cccc(-c2noc(CCCC(=O)NC3CCCC3)n2)c1	13%
CCOC(=O)CNc1c(-c2ccc(F)cc2)nc2cnccn12	-2.85%
CCOC(=O)c1ccc(-n2c(N)c(C(=O)NCC3CCCO3)sc2=S)cc1 (centres unmarked)	2.25%
C=CCN1C(=O)C(Cc2cccc(Cl)c2)S/C1=N/N=C/c1ccco1 (centres unmarked)	1.59%
COc1ccccc1NC(=O)c1cc(N2C(=O)C3C4CCC(C4)C3C2=O)ccc1Cl (centres unmarked)	-6.06%
COc1ccc(NC(=O)C(c2ccc(C)cc2)N(C)C(=O)CC2NC(=O)NC2=O)cc1 (centres unmarked)	-3.76%
O=C(NCc1ccc(F)cc1)C1CCCN1C(=O)NCc1ccccc1 (centres unmarked)	-5.07%
O=C(CN1CCOCC1)N/N=C/c1ccc(-c2ccc(C(=O)O)cc2)o1	2.25%
O=C(NCc1cccnc1)c1cccc(OC2CCN(Cc3ccc(CO)o3)CC2)c1	12.9%
Cc1ccc(S(=O)(=O)N2CCN(C(=O)C3CCN(C(=O)c4ccccc4C)CC3)CC2)cc1C	-0.544%
O=C(c1cccc(S(=O)(=O)N2CCOCC2)c1)N(Cc1ccco1)Cc1cccs1	-6.4%
C=C(C(=O)Oc1c(C(C)(C)C)cccc1C(C)(C)C)c1ccccc1	9.92%
CCN(CC)c1ccc(N=Cc2c(O)n(CCC3=CCCCC3)c(=O)[nH]c2=O)cc1	20.8%
Cc1ccc(S(=O)(=O)NC(=O)Nc2cccc([N+](=O)[O-])c2)cc1	7.82%
O=C(NCc1ccccn1)c1cc(-c2ccc(-c3ccccc3)cc2)nc2ccccc12	4.58%
Cc1cccc(N(Cc2cc3ccccc3[nH]c2=O)S(=O)(=O)c2ccccc2)c1	5.15%
O=C(Cn1cnc(S(=O)(=O)N2CCCCC2)c1)N1CCN(c2ccc([N+](=O)[O-])cc2)CC1	-5.79%

Structure (SMILES)	hERG current change (%, negative = inhibition) at 1uM
CN(C)C(C)(C)/C=C/C(O)(c1ccccc1)c1ccccc1	4.79%
Cc1ccc(C)c(OC(=O)c2ccncc2)c1	7.64%
CCCn1c(SCC(=O)N2c3ccccc3Sc3ccccc32)nc2c1c(=O)n(C)c(=O)n2C	-1.96%
O=C(C1CCCN(S(=O)(=O)c2ccccc2)C1)N1CCCCC1 (centres unmarked)	9.2%
CCCN1CCC(NC(=O)Nc2ccc([N+](=O)[O-])cc2)CC1	-10.2%
Clc1ccc(-c2cc(CSc3cccc(Cl)c3)on2)cc1	1.62%
C[C@H](NC(=O)OC(C)(C)C)c1nnc(SCC(=O)c2ccc(Cl)cc2)o1	-16.2%
Cc1nc(N2CCCC2)c2nnn(Cc3ccccc3Cl)c2n1	7.5%
Cc1cc(=O)[nH]c(SCc2nc3ncccn3c2Br)n1	13.5%
CC(C)Cc1nc(SCC(=O)NCC2CCCO2)c2c(=O)n(C)c(=O)n(C)c2n1 (centres unmarked)	6.6%
O=C(NCC1COc2ccccc2O1)C1CCC(CNc2c(N3CCCCC3)c(=O)c2=O)CC1 (centres unmarked)	0.783%
c1ccc(C2(CNc3ccccn3)CCCC2)cc1	-11%
Cc1ccc(SC[C@H](Cc2ccccc2)N2CCN(CCc3ccccc3)CCC2=O)cc1	8.27%
Cc1ccc(N2C(=O)NC(NC(=O)C(C)(C)C)(C(F)(F)F)C2=O)cc1 (centres unmarked)	6.67%
CCC(=O)Nc1cc2c(cc1C(C)=O)OCCO2	15.3%
O=C(c1cc2c(=O)n3ccccc3nc2s1)N1CCN(c2cccc(Cl)c2)CC1	10.4%
COc1ccc(NS(=O)(=O)c2cccc(NC(=O)C34CCC(CC3)C4)c2)cc1	3.23%
CC(=O)Nc1nnc(CCN2CCCCC2)s1	-0.872%
COC(=O)c1sc(=S)n(-c2cccc(Cl)c2)c1N	2.67%
CCOC(=O)CNC(=S)N(Cc1ccccc1F)C1CCCCC1	5.28%
CCOc1ccccc1N1CC(C(=O)Nc2cc(Cl)ccc2-n2cncn2)CC1=O (centres unmarked)	7.45%
Cn1ccnc1SCC(=O)c1cc2ccccc2o1	7.83%

Structure (SMILES)	hERG current change (%, negative = inhibition) at 1uM
CCOC(=O)N1CCN(C(=O)c2ccccc2NC(=O)c2ccc(OC)cc2)CC1	9.15%
COc1ccc(NC(=O)c2cccc(N3C(=O)C4CC=C(C)CC4C3=O)c2)c(OC)c1 (centres unmarked)	11.7%
CC(OC(=O)CCSc1ccccc1)C(=O)Nc1ccc(S(N)(=O)=O)cc1 (centres unmarked)	4.55%
CC1(C)CC(c2nc(-c3ccc(Br)cc3)cs2)CCS1.Cl (centres unmarked)	8.62%
Cc1sc2ncnc(N3CCC(C(=O)NNC(=O)c4ccc(Cl)cc4)CC3)c2c1C	14.9%
COc1ccc(-c2c3c(=O)n(C)c(=O)n(C)c3cn2-c2ccc(O)cc2)cc1	0.946%
Cc1cc(-c2csc(N)n2)c(C)n1Cc1ccco1	12.5%
CC(=O)Nc1ccc(S(=O)(=O)NCCC(=O)Nc2ncccc2C)cc1	9.09%
COc1ccc(CCN(Cc2ccccn2)C(=S)Nc2ccc(C)cc2)cc1OC	-14.2%
O=C(NN1C(=O)C2C3c4ccccc4C(c4ccccc43)C2C1=O)c1ccc(Cl)cc1 (centres unmarked)	4.89%
O=C1CCC(C(=O)OCc2cc(=O)oc3ccc4ccccc4c23)=NN1	1.06%
O=C1CS/C(=N\N=C\c2ccccc2Cl)N1CC1CC1	8.59%
C/C(=N/NC(=O)c1ccc2c(c1)OCO2)c1ccc(NC(=O)c2ccc(F)cc2)cc1	6.26%
CC(=O)c1c(C)[nH]c(C(=O)COC(=O)c2ccc3c(=O)n4c(nc3c2)CCC4)c1C	4.65%
CCCCn1c(=O)c(C(=O)OCC)c(O)c2ccccc21	2.5%
c1ccc(-c2nc3nc4ccccc4nc3n2Cc2ccco2)cc1	-15.1%
COc1ccc(C(=O)NC(NC(=S)Nc2ccc(S(N)(=O)=O)cc2)C(Cl)(Cl)Cl)cc1 (centres unmarked)	14.3%
Cc1ccc(N(CCC#N)C(=O)COC(=O)c2nc3nc(C)cc(C)n3n2)cc1	14.6%
O=C(NC1CCCC1)c1cccc(S(=O)(=O)Nc2ccccc2F)c1	6.14%
CC1CCN(C(=O)C2CCN(C(=O)c3ccc(C(C)(C)C)cc3)CC2)CC1	5.69%
COc1cccc(Cn2cnc3c(NS(=O)(=O)c4cccc(Cl)c4Cl)c(C)c(C)cc32)c1	9.74%
Cc1cccc(-n2nnc(C(=O)N3CCc4ccccc4C3)c2N)c1	1.93%

Structure (SMILES)	hERG current change (%, negative = inhibition) at 1uM
Cc1ccsc1C(C(=O)NCc1ccccc1)N(C(=O)c1csnn1)c1ccccc1 (centres unmarked)	14.6%
CC(=O)NCCNC(=O)c1oc2ccccc2c1CSc1ncn[nH]1	12.7%
CC(=O)NC(CC(=O)Nc1nc(C)cs1)c1ccccc1 (centres unmarked)	7.63%
CCOC(=O)N1CCC(NC(=O)c2cc(COc3ccccc3SC)on2)CC1	12.1%
Brc1[nH]nc2ccccc12	-0.724%
Cc1ccccc1OCC(=O)NCCC1=CCCCC1	11.2%
COc1ccc(-c2sc3ccc(OC)cc3c2-c2ccc(OC)c(F)c2)cc1	6.88%
O=C(O)c1ccccc1/C=N/NC(=S)NCc1ccccc1	9.88%
O=C(COc1ccc(Cl)cc1)Nc1ccccc1C(=O)NCc1cccnc1	-1.68%
COC(=O)c1c(C(=O)OC)c(-c2ccc(C(C)(C)C)cc2)n2c1CS(=O)C2 (centres unmarked)	7.34%
CCN1CCN(Cc2cc(OC)c(OC)cc2[N+](=O)[O-])CC1	10.4%
COc1ccc(C(=O)NC2CC3CCCC(C2)N3Cc2ccccc2)c(OC)c1 (centres unmarked)	0.894%
c1ccc(C2c3[nH]c4ccccc4c3CCN2Cc2cccn2-c2cccnc2)nc1 (centres unmarked)	3.35%
CCc1cc(C(=O)Nc2ccccc2N2CCOCC2)sc1C	13.2%
[O-]/C(=C(\C(=S)Nc1cccc2ccccc12)[n+]1ccccc1)c1ccc2c(c1)OCCO2	-17.6%
NC(=O)COC(=O)c1cccc(S(=O)(=O)N2CCCc3ccccc32)c1	-1.75%
Cc1cccc(N=C2NC(=O)/C(=C/c3cccn3C)S2)c1C	4.75%
CC(=O)c1cccc(N(CC(=O)NC2CCCCC2)C(=O)CNC(=O)c2cccs2)c1	20.7%
NC(=O)CC(NC(=O)c1ccc(Br)cc1)c1ccc(NC2CCCCCC2)c([N+](=O)[O-])c1 (centres unmarked)	19.7%
Cc1cccc(-c2ncc(CN3CCC(CO)(CCCc4ccccc4)CC3)cn2)c1	-10.6%
